From the supplement of paper PMC3334620
Whole data set: some 33,000 sequences, median “E-score (-0.5 to 0.5)” near -0.016, cut for the highest 2% near 0.31. The list shows a part of the results.

The sequences below were run against Cst6 (UniProt P40535) (assay: PBM E-score (8-mer binding enrichment) (E-score (-0.5 to 0.5)); higher = stronger / more preferred TF binding; most listed sequences are background and not binding sites). Settings: protein concentration: 200 nM; construct: GST-DNA-binding domain.
Procedure, shortened: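 Using PURExpress in vitro transcription/translation, GST-tagged yeast transcription factors were made in full-length or DNA-binding-domain form. These were applied at about 100-200 nM to double-stranded universal all-10-mer Agilent arrays, and bound protein was detected with fluorescent anti-GST. Scans were normalised with masliner before the Universal PBM Analysis Suite assigned E-scores to ungapped eight-base words pooled with their reverse complements.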

Sequence	PBM E-score
AACGATAA	-0.035
CATTACGA	0.205
ATAACCCG	-0.359
GCACAAAA	0.171
ACCCTCTC	-0.352
CACCATCG	-0.148
CTCGCAAA	-0.143
GTCCCTAA	-0.165
GACTGTAC	-0.043
AGCAGAGC	-0.155
AGGACGTC	0.161
ACAATGCC	-0.0253
ATAAAGGG	-0.00024
GCCTTGCA	0.0649
CCTCTAAA	-0.134
AGCATCTC	-0.1
GCGATAAC	0.0758
CATGTGAG	-0.172
AAAAACCA	0.175
GGAAATCC	-0.129
GACGACGA	0.0598
CGCCTGCA	-0.132
ACGGACTG	-0.23
CGAACTAA	0.0961
AGCCCGCT	-0.345

Sequence	PBM E-score
CGACCATA	-0.155
ATACGTCG	0.215
AAAGACAT	0.0761
TACAAATA	0.279
CGGACCAC	-0.167
CATTTGTA	0.258
AAAGTTAC	0.154
AGGGGCAT	-0.239
GGTATTAA	0.053
AGACTGAG	-0.255
CACTGTCA	0.0758
CTCGCCTA	0.00413
CAGGAAAA	0.0388
CGCGAGAA	-0.0934
CCCGCAAA	0.0549
AAACAAAA	0.219
TACCTAGA	-0.202
AACTAGGG	-0.166
ACAAAAAA	0.311
GCGCGACC	0.0302
GTCCATGA	-0.0498
CAGAAGGA	-0.316
AACCTAAG	-0.15
CAGTTAAA	0.12
AGCCCTCG	-0.253

Sequence	PBM E-score
TTCTTAAA	0.125
AACAGATG	0.0323
CCGTATGC	0.0167
GGGATGAC	0.221
CGTCATAG	0.468
GAACATAA	0.0774
TCACCGCA	0.131
CCAGCTGG	-0.276
AACCGCGA	0.187
AGGGCGAC	-0.112
CCACCTCC	-0.208
ACTTCCGA	-0.095
CGTTCAGC	-0.0555
GAATACGC	0.0327
ACCGTCAA	0.159
AGGCCCAC	-0.378
AAGCCGAC	-0.231
AACTTGGA	-0.014
ATTCCACG	-0.0333
TGACACCA	0.207
CGGAAGCC	-0.215
GCAACATA	0.00166
AGTGGCGA	0.0569
GTGTCTGA	0.0503
GCGAAGAA	0.104

Sequence	PBM E-score
GTGTCCTA	-0.0992
AGTAGTGC	-0.186
GCCTAAAC	-0.122
ATGGCCGA	-0.115
GGCGGCAA	0.137
TCGGGTAA	-0.0306
CGGCCTGC	-0.254
AGCGCGTG	-0.0464
GCGGAGAC	-0.0522
CTTCTAAA	0.115
TAGACTGA	0.0599
CGATCCAG	0.0183
GTTCGGCA	0.0638
ATCAGTTA	0.258
CTTTTCTA	-0.0954
ACGATGAT	0.206
AGGTGGAT	-0.119
GACTAAGA	-0.0891
AAGACGTA	0.215
AAGCGGAT	-0.0562
ATGAGGTA	0.312
TCCGCACA	0.0266
ATAAAAAA	0.234
CGTGGCGA	-0.0853
GGGTACTA	-0.00885

Sequence	PBM E-score
AACGTTAG	0.0614
CACTCCTA	-0.0931
CTAAATTC	0.221
CGGTTCAC	-0.299
CTAAGAGC	-0.208
AACCTCGA	-0.0253
GTGTTCTA	0.103
ACGGCGTA	0.358
ATTTGAGA	0.139
AAGGAACC	-0.0799
AAAAGTAT	0.248
AATCAACC	-0.193
AGAAGTGC	-0.187
AGCAAGCT	-0.257
AAAATACC	0.0958
AAGACCCC	-0.272
TAATGGAA	0.221
CGAATCAC	0.0397
ACTCACCA	0.043
ACGCTGAG	-0.00878
AACATATC	0.134
CGGGAGAC	-0.262
GCTCGGGA	-0.193
AGGAGCTG	-0.256
AAGGGCGA	-0.152

Sequence	PBM E-score
TCCAGGGA	-0.117
CACACTCC	-0.117
ACAGGGCG	0.0932
ATCCCGTG	0.0123
ACTCAGGC	-0.0327
CCTGTCAA	-0.0105
AGCACCCT	-0.296
GTTATGTA	0.165
ATCCATTG	0.0328
GGCATGGA	0.0466
AGCGCCAG	-0.202
CTGAATGC	-0.0424
CCCGTTTC	-0.266
CAGGATAG	0.0523
AGGTGCCC	-0.233
ATGAACAT	0.132
CAAACTAG	-0.195
ATCTTGGC	-0.185
GAACAGTC	-0.312
AGAAAGAG	-0.0467
AAGTAATC	0.179
CCATGCCA	-0.0478
AGTGAAAG	0.0582
CAAGGTCA	-0.147
ATTCTCGC	-0.17

Sequence	PBM E-score
ATGTGTGA	0.0664
ATCTTTCC	0.023
GATACGTA	0.332
AAGGGCGT	-0.0269
AGGTAACG	-0.161
CATTTTCG	0.176
CACTCTCG	0.0532
ACAGGCTA	-0.22
TGATTAAA	0.242
ACCGAGAT	-0.0371
ATTTTAAG	0.203
CGGTTACA	0.171
CGTGATAG	0.0126
CATTACCC	-0.01
CATCGCCC	-0.0867
CTAAACTA	-0.0665
CGCCCAAG	-0.248
TCGAATAA	0.0566
CCAGACAC	-0.193
CTCGGTCC	-0.203
CGGCTGTA	0.0661
CTCCTGAA	0.0124
AACCGAAG	-0.046
AGACGTAA	0.371
AAGATACC	0.0362

Sequence	PBM E-score
GCCCTGCA	-0.0503
CCTGCGAG	-0.0845
GCTAGACA	-0.0573
GGATAGAA	0.183
ACTAGGAT	0.105
CCCGTACC	-0.0481
GCACCCAC	0.0778
AATCTGGG	-0.1
ATAAGCGG	0.154
AAGGGGAA	-0.169
AGCTAGGA	-0.172
AACAGACT	-0.00426
CAGTGGTA	-0.0795
CCCCGAAC	-0.288
AAGACAGT	-0.113
AGTAGAAG	0.0604
ACAGGGGC	-0.213
AAACTCGT	0.0664
CCCTTCAA	-0.00494
ACTCGAGC	-0.0936
TAGGAGAA	-0.185
AAATCGGT	-0.0511
AGTATTTC	0.197
GATTCTCC	-0.194
TATGTGGA	0.0371

Sequence	PBM E-score
ATGACCGG	-0.019
CCCCTGAC	-0.0251
AGCAGGAC	-0.13
GTGGATTA	0.02
CACTCAGA	0.0777
AAACTGAG	-0.0611
AACGATCA	-0.0508
CAGTTAGC	-0.118
GTGGCCGA	-0.201
CTGCTAAC	-0.0213
ACCACACC	-0.185
AAGGAGGT	-0.294
GGGACCCC	-0.36
AGCCGCTG	-0.0413
ACCCGTGA	0.109
CACCTTCA	-0.171
CAAGTACC	-0.25
ACGGAGTG	0.0572
AGCGCCAT	-0.16
AGATCCCT	-0.214
AACTCTAG	-0.05
AGGTCGGC	-0.225
CTCCTCGC	-0.24
AGCCGCTC	0.0741
ATATGCGG	0.0776

Sequence	PBM E-score
TGCGAACA	0.0636
GGGGAAGA	-0.114
ATCGCTAG	0.00259
AAAATGAG	0.157
CACAGGGG	-0.278
CACTGTGC	-0.0708
AATGACGG	0.35
CCTGTCGA	-0.0378
CTGGTAAC	0.0441
ACCATCCC	-0.021
CTTCCCTA	-0.205
ACTCCAAA	0.0486
AGTTGCCA	-0.192
ACATAGGC	-0.024
CCGATGTA	-0.0196
CTTCTACC	-0.282
ATAGCCAC	0.0409
TATAGAAA	0.152
AAAGTACC	-0.0753
AGACCGTC	-0.127
CCTCCGCG	-0.278
GTTCGCAA	0.181
AATATCAG	0.043
ACTATAGT	0.166
CTGCGGGC	-0.232

Sequence	PBM E-score
CTGCGGCC	-0.0683
GTCTCGCA	-0.284
GAAGTACC	-0.184
GGCCCCCC	-0.376
GAAATAGA	0.196
CAGTCGTA	-0.101
AATCGGGT	0.191
ACAACACC	0.0839
CTTAAAAC	0.155
CATTAAAG	0.184
CGCCGGCG	0.111
CGCTAGAC	-0.347
ATCCAAAA	0.0959
GCTTCAGA	-0.213
CCATAAGA	0.0383
CTCATGAG	0.079
GAACTAGC	-0.22
AAGGCCTG	-0.193
AGCGGGGC	-0.149
ACCATACG	0.086
AGCGAATG	-0.211
GGTTTACA	0.0693
AAACATGC	-0.0218
AGTAACGC	0.0516
ATTAGCTG	0.0625

Sequence	PBM E-score
AAAGTTTA	0.188
TAATTACA	0.277
CGGGCGCA	-0.173
GATGAAAC	0.0812
GCGTCACC	0.448
CAGAAACG	0.149
CTGAAATA	0.0963
AACCTTCC	-0.12
ATCGAAAA	0.219
AATGAGAG	-0.025
AACACTGT	-0.0731
ATTGGCCC	-0.36
CCGCGGAC	-0.12
AACTTAAA	0.202
ATACTACA	0.186
CACCAGCG	-0.0634
AACGTTTC	-0.115
CAGTAAAG	0.234
GGACGACA	0.0793
CGCAGAAA	0.0112
GGTAGTGA	0.0298
CACCAACG	-0.0835
AAAGCTAC	0.00086
CTCCTCTA	-0.232
TCGTCTCA	-0.0927

Sequence	PBM E-score
GCATTCGA	-0.00988
CCCCCGCG	-0.156
CAGCAAAA	0.0508
CTCTTACC	0.1
AGCAGCCT	-0.118
AAATTTCG	0.095
CCGTAAAA	0.0767
GGGTAAAA	0.147
GACGGAAA	0.116
CTTGCCCA	-0.202
AGTCAGTG	-0.0966
AGGAAACC	-0.0455
ACACGGGG	-0.0685
ATACCTGC	-0.151
ATCGTAAT	0.296
AGCTAATG	-0.0129
CCATTCAA	0.0741
CGAGACAA	-0.11
ACTTAACA	0.128
AGCTCACG	-0.0988
ACAAAGCA	0.224
CGCTACAC	-0.0708
CGCCGCGC	0.357
TATCGCAA	-0.0308
CAGAAGCC	-0.016

Sequence	PBM E-score
GAGTGAAC	-0.0925
GGAGACAC	-0.0358
CACTATAC	0.087
AATGTGTA	0.046
AGGGACGG	-0.197
GCAGCGAA	-0.0469
ATTCTAGG	-0.0115
AGGAACAG	-0.204
CTACAGAC	-0.184
ATCCTAAT	0.0626
ACCCAGCA	-0.177
ATCATCTA	0.151
CCTTGTTC	-0.124
CACCCAGA	0.0656
CATTGGCG	-0.093
ATAGTGAC	0.392
ATGGTTGC	-0.223
ATGACGTA	0.498
CAAGAACG	0.0684
